# Source: the supplement of paper PMC10037445
# “And” between values parts separate entries of the source, which are not always exact repeats. Identical values can stand only once. Whole data set: some 2,900 compounds, median “NF-kB SEAP reporter activity, fold change vs agonist alone” near 0.99, cut for the highest 2% near 2.6. The list shows a part of the results.
# Columns and labels:
# RAW-Dual [1] = assay: NF-kB SEAP reporter activity, fold change vs agonist alone; cytotoxicity flag (confluency mask): not cytotoxic; higher = enhanced NF-kB activity
# Procedure, shortened: (§1)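 Cytotoxic wells were those whose IncuCyte confluency was below 70% of agonist controls in both mask sets. The cells were RAW-Dual macrophages at 50,000 cells/well in DMEM on 384-well plates, dosed with 50 nL of library stock by pin tool, stimulated with a PRR agonist 1 h later, and kept at 37 °C, 5% CO2 for 20 hours. IRF and NF-κB reporter activity, as fold change over agonist-alone wells, came from supernatant read by QuantiLuc luminescence and QuantiBlue absorbance, respectively.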
# RAW-Dual [2] = assay: NF-kB SEAP reporter activity, fold change vs agonist alone; higher = enhanced NF-kB activity
# Procedure, shortened: as §1
# RAW-Dual [3] = assay: NF-kB SEAP reporter activity, fold change vs agonist alone; cytotoxicity flag (confluency mask): cytotoxic (confluency <70% of control); higher = enhanced NF-kB activity
# Procedure, shortened: as §1
# [4] = agonist: ODN 1826 (TLR9) 0.5 ug/mL
# [5] = agonist: Pam2CSK4 (TLR2/6) 0.1 ug/mL
# [6] = agonist: Pam3CSK4 (TLR2/1) 0.1 ug/mL
# [7] = library stock concentration (final ~1000-fold dilution): 10 mM, cytotoxicity flag (confluency mask): not cytotoxic, agonist: Imiquimod (TLR7) […]
# [8] = library stock concentration (final ~1000-fold dilution): 10 mM, cytotoxicity flag (confluency mask): not cytotoxic, agonist: MPLA (TLR4) […]
compound,measurement,setting,value
COc1cccc2c1C(=O)c1c(O)c3c(c(O)c1C2=O)CC(O)(C(=O)CO)CC3OC1CC(N)C(O)C(C)O1.Cl (configuration not stated) (library stock concentration (final ~1000-fold dilution): 10 mM),NF-kB SEAP reporter activity,RAW-Dual [1]; agonist: LPS (TLR4) 0.1 ug/mL,0.25
same,NF-kB SEAP reporter activity,RAW-Dual [1]; [4],0.194
same,NF-kB SEAP reporter activity,RAW-Dual [1]; [5],0.103
same,NF-kB SEAP reporter activity,RAW-Dual [1]; [6],0.16
COc1cccc2c1C(=O)c1c(O)c3c(c(O)c1C2=O)CC(O)(C(=O)CO)CC3OC1CC(N)C(O)C(C)O1.Cl (configuration not stated),NF-kB SEAP reporter activity,RAW-Dual [2]; [7],0.222
same,NF-kB SEAP reporter activity,RAW-Dual [2]; [8],0.229
O=C1CCCC(=O)C1C(=O)c1ccc(C(F)(F)F)cc1[N+](=O)[O-] (library stock concentration (final ~1000-fold dilution): 10 mM),NF-kB SEAP reporter activity,RAW-Dual [1]; agonist: LPS (TLR4) 0.1 ug/mL,0.874 and 1.02
same,NF-kB SEAP reporter activity,RAW-Dual [1]; [4],0.949 and 1.11
same,NF-kB SEAP reporter activity,RAW-Dual [1]; [5],0.916 and 1.09
same,NF-kB SEAP reporter activity,RAW-Dual [1]; [6],0.815 and 0.924
O=C1CCCC(=O)C1C(=O)c1ccc(C(F)(F)F)cc1[N+](=O)[O-],NF-kB SEAP reporter activity,RAW-Dual [2]; [7],0.868
OCc1ccccc1OC1OC(CO)C(O)C(O)C1O (configuration not stated) (library stock concentration (final ~1000-fold dilution): 10 mM),NF-kB SEAP reporter activity,RAW-Dual [1]; agonist: LPS (TLR4) 0.1 ug/mL,0.986
same,NF-kB SEAP reporter activity,RAW-Dual [1]; [4],1.08
same,NF-kB SEAP reporter activity,RAW-Dual [1]; [5],1.11
same,NF-kB SEAP reporter activity,RAW-Dual [1]; [6],1.19
OCc1ccccc1OC1OC(CO)C(O)C(O)C1O (configuration not stated),NF-kB SEAP reporter activity,RAW-Dual [2]; [7],0.917
same,NF-kB SEAP reporter activity,RAW-Dual [2]; [8],1.04
C=CC(=O)Nc1cccc(Oc2nc(Nc3ccc(N4CCN(C)CC4)cc3)nc3ccsc23)c1 (library stock concentration (final ~1000-fold dilution): 10 mM),NF-kB SEAP reporter activity,RAW-Dual [3]; agonist: LPS (TLR4) 0.1 ug/mL,0.504
same,NF-kB SEAP reporter activity,RAW-Dual [3]; [4],0.202
same,NF-kB SEAP reporter activity,RAW-Dual [3]; [5],0.226
same,NF-kB SEAP reporter activity,RAW-Dual [3]; [6],0.166
C=CC(=O)Nc1cccc(Oc2nc(Nc3ccc(N4CCN(C)CC4)cc3)nc3ccsc23)c1,NF-kB SEAP reporter activity,"RAW-Dual [2]; library stock concentration (final ~1000-fold dilution): 10 mM, cytotoxicity flag (confluency mask): cytotoxic (confluency <70% of control), agonist: Imiquimod (TLR7) […]",1.41
same,NF-kB SEAP reporter activity,"RAW-Dual [2]; library stock concentration (final ~1000-fold dilution): 10 mM, cytotoxicity flag (confluency mask): cytotoxic (confluency <70% of control), agonist: MPLA (TLR4) […]",0.937
O=C(Nc1cnn2ccc(N3CCCC3c3cc(F)ccc3F)nc12)N1CCC(O)C1.O=S(=O)(O)O (configuration not stated) (library stock concentration (final ~1000-fold dilution): 10 mM),NF-kB SEAP reporter activity,RAW-Dual [1]; agonist: LPS (TLR4) 0.1 ug/mL,0.889
same,NF-kB SEAP reporter activity,RAW-Dual [1]; [4],0.861
same,NF-kB SEAP reporter activity,RAW-Dual [1]; [5],1.03
same,NF-kB SEAP reporter activity,RAW-Dual [1]; [6],0.795
O=C(Nc1cnn2ccc(N3CCCC3c3cc(F)ccc3F)nc12)N1CCC(O)C1.O=S(=O)(O)O (configuration not stated),NF-kB SEAP reporter activity,RAW-Dual [2]; [7],1.05
same,NF-kB SEAP reporter activity,RAW-Dual [2]; [8],0.956
CN(C)Cc1ccc(S(=O)(=O)n2ccc(/C=C/C(=O)NO)c2)cc1,NF-kB SEAP reporter activity,RAW-Dual [2]; [7],1.01
same,NF-kB SEAP reporter activity,RAW-Dual [2]; [8],0.905
CN(C)Cc1ccc(S(=O)(=O)n2ccc(/C=C/C(=O)NO)c2)cc1 (library stock concentration (final ~1000-fold dilution): 10 mM),NF-kB SEAP reporter activity,RAW-Dual [1]; agonist: LPS (TLR4) 0.1 ug/mL,4.18
same,NF-kB SEAP reporter activity,RAW-Dual [1]; [4],0.95
same,NF-kB SEAP reporter activity,RAW-Dual [1]; [5],1.03
same,NF-kB SEAP reporter activity,RAW-Dual [1]; [6],0.94
O=C(/C=C/c1ccc(O)c(O)c1)O[C@@H]1C[C@](O)(C(=O)O)C[C@@H](O)[C@H]1O (library stock concentration (final ~1000-fold dilution): 10 mM),NF-kB SEAP reporter activity,RAW-Dual [1]; agonist: LPS (TLR4) 0.1 ug/mL,0.847
same,NF-kB SEAP reporter activity,RAW-Dual [1]; [4],0.883
same,NF-kB SEAP reporter activity,RAW-Dual [1]; [5],0.901
same,NF-kB SEAP reporter activity,RAW-Dual [1]; [6],0.768
O=C(/C=C/c1ccc(O)c(O)c1)O[C@@H]1C[C@](O)(C(=O)O)C[C@@H](O)[C@H]1O,NF-kB SEAP reporter activity,RAW-Dual [2]; [7],0.896
same,NF-kB SEAP reporter activity,RAW-Dual [2]; [8],1.01
C=CCc1ccccc1OCC(O)CNC(C)C.Cl (configuration not stated),NF-kB SEAP reporter activity,RAW-Dual [2]; [7],1.07
same,NF-kB SEAP reporter activity,RAW-Dual [2]; [8],1.23
C=CCc1ccccc1OCC(O)CNC(C)C.Cl (configuration not stated) (library stock concentration (final ~1000-fold dilution): 10 mM),NF-kB SEAP reporter activity,RAW-Dual [1]; agonist: LPS (TLR4) 0.1 ug/mL,1.12
same,NF-kB SEAP reporter activity,RAW-Dual [1]; [4],1
same,NF-kB SEAP reporter activity,RAW-Dual [1]; [5],0.881
same,NF-kB SEAP reporter activity,RAW-Dual [1]; [6],0.752
Cc1ccc2nc(NC(=O)CSc3nc4c(c(=O)n3-c3ccccc3)SCC4)sc2c1 (library stock concentration (final ~1000-fold dilution): 2 mM),NF-kB SEAP reporter activity,RAW-Dual [1]; agonist: LPS (TLR4) 0.1 ug/mL,1.21
same,NF-kB SEAP reporter activity,RAW-Dual [1]; [4],1.09
same,NF-kB SEAP reporter activity,RAW-Dual [1]; [5],1.13
same,NF-kB SEAP reporter activity,RAW-Dual [1]; [6],1.04
Cc1ccc2nc(NC(=O)CSc3nc4c(c(=O)n3-c3ccccc3)SCC4)sc2c1,NF-kB SEAP reporter activity,"RAW-Dual [2]; library stock concentration (final ~1000-fold dilution): 2 mM, cytotoxicity flag (confluency mask): not cytotoxic, agonist: Imiquimod (TLR7) […]",0.595
same,NF-kB SEAP reporter activity,"RAW-Dual [2]; library stock concentration (final ~1000-fold dilution): 2 mM, cytotoxicity flag (confluency mask): not cytotoxic, agonist: MPLA (TLR4) […]",1.04
N#C/C(=C\c1ccc(O)c(O)c1)C(=O)NCc1ccccc1 (library stock concentration (final ~1000-fold dilution): 10 mM),NF-kB SEAP reporter activity,RAW-Dual [1]; agonist: LPS (TLR4) 0.1 ug/mL,0.947
same,NF-kB SEAP reporter activity,RAW-Dual [1]; [4],0.542
same,NF-kB SEAP reporter activity,RAW-Dual [1]; [5],0.672
same,NF-kB SEAP reporter activity,RAW-Dual [1]; [6],0.664
N#C/C(=C\c1ccc(O)c(O)c1)C(=O)NCc1ccccc1,NF-kB SEAP reporter activity,RAW-Dual [2]; [7],0.824
same,NF-kB SEAP reporter activity,RAW-Dual [2]; [8],0.91
CC(C)(Sc1cc(C(C)(C)C)c(O)c(C(C)(C)C)c1)Sc1cc(C(C)(C)C)c(OC(=O)CCC(=O)O)c(C(C)(C)C)c1 (library stock concentration (final ~1000-fold dilution): 10 mM),NF-kB SEAP reporter activity,RAW-Dual [1]; agonist: LPS (TLR4) 0.1 ug/mL,1.16
same,NF-kB SEAP reporter activity,RAW-Dual [1]; [4],0.568
same,NF-kB SEAP reporter activity,RAW-Dual [1]; [5],0.26
same,NF-kB SEAP reporter activity,RAW-Dual [1]; [6],0.382
CC(C)(Sc1cc(C(C)(C)C)c(O)c(C(C)(C)C)c1)Sc1cc(C(C)(C)C)c(OC(=O)CCC(=O)O)c(C(C)(C)C)c1,NF-kB SEAP reporter activity,RAW-Dual [2]; [7],0.522
same,NF-kB SEAP reporter activity,RAW-Dual [2]; [8],0.926
Cn1cc(-c2ccc3c(c2)CCN3C(=O)Cc2cccc(C(F)(F)F)c2)c2c(N)ncnc21 (library stock concentration (final ~1000-fold dilution): 10 mM),NF-kB SEAP reporter activity,RAW-Dual [1]; agonist: LPS (TLR4) 0.1 ug/mL,0.53
same,NF-kB SEAP reporter activity,RAW-Dual [1]; [4],0.969
same,NF-kB SEAP reporter activity,RAW-Dual [1]; [5],0.377
same,NF-kB SEAP reporter activity,RAW-Dual [1]; [6],0.345
Cn1cc(-c2ccc3c(c2)CCN3C(=O)Cc2cccc(C(F)(F)F)c2)c2c(N)ncnc21,NF-kB SEAP reporter activity,RAW-Dual [2]; [7],0.247
same,NF-kB SEAP reporter activity,RAW-Dual [2]; [8],0.909
Oc1cccc(-c2nc(N3CCOCC3)c3oc4ncccc4c3n2)c1,NF-kB SEAP reporter activity,RAW-Dual [2]; [7],2.46
same,NF-kB SEAP reporter activity,RAW-Dual [2]; [8],2.44
Oc1cccc(-c2nc(N3CCOCC3)c3oc4ncccc4c3n2)c1 (library stock concentration (final ~1000-fold dilution): 10 mM),NF-kB SEAP reporter activity,RAW-Dual [1]; agonist: LPS (TLR4) 0.1 ug/mL,4.71
same,NF-kB SEAP reporter activity,RAW-Dual [1]; [4],0.369
same,NF-kB SEAP reporter activity,RAW-Dual [1]; [5],0.849
same,NF-kB SEAP reporter activity,RAW-Dual [1]; [6],1.34
